The values that follow come from the antibiotic and cytotoxicity screens of Wong et al. (2023).

The other results are listed elsewhere or left out.

One experiment deals with HSkMC. Put plainly: cytotoxicity call (relative viability < 0.9). The settings on record: 10 µM.
The next experiment deals with HepG2. Put plainly: cytotoxicity call (relative viability < 0.9). The conditions noted are these: 10 µM.
The test system of a further experiment is S. aureus RN4220. Put plainly: growth inhibition call (relative growth <= 0.2). The settings on record: 50 µM.

For the molecule `O=[N+]([O-])c1ccc2nc(CO)[nH]c2c1`, the cytotoxicity call in the experiment on HSkMC and with HepG2 was “inactive” throughout. Besides, the growth inhibition call in the experiment with S. aureus RN4220 is “inactive”.

On to `COc1ccc(CN(C)C[C@H]2OCCCC[C@@H](C)Oc3ccc(NC(=O)Cc4ccccc4)cc3C(=O)N([C@H](C)CO)C[C@@H]2C)cc1`, for which the cytotoxicity call in the experiment with HSkMC and with HepG2 was “inactive” in each case. The growth inhibition call in the experiment with S. aureus RN4220 is “inactive”.

Consider `CC(C)CNC(=O)[C@@H]1c2ccccc2C(=O)N(Cc2cc(F)cc(C(F)(F)F)c2)[C@H]1c1ccc(CO)cc1`, for which the cytotoxicity call in the experiment with HSkMC and with HepG2 was “inactive” throughout. Further, the growth inhibition call in the experiment with S. aureus RN4220 was “inactive”.

`C[C@@H]1CCCCO[C@H](CN(C)C(=O)Nc2ccc3c(c2)OCO3)[C@@H](C)CN([C@@H](C)CO)C(=O)c2cc(NS(=O)(=O)c3cccs3)ccc2O1`: the cytotoxicity call in the experiment on HSkMC and with HepG2 was “inactive” in each case. Moreover, the growth inhibition call in the experiment with S. aureus RN4220 was “inactive”.

`C/C=C/c1cccc(-c2nc(C(=O)NCc3cccc(OC)c3)cc3c2[C@H](CCO)N([S@@](=O)C(C)(C)C)C3)c1`: the cytotoxicity call with HSkMC and in the experiment with HepG2 was “inactive” in each case. Further, the growth inhibition call in the experiment with S. aureus RN4220 was “inactive”.

Turning to `CCn1cc(C(=O)O)c(=O)c2cc(F)c(N3CCNCC3)cc21`, the cytotoxicity call in the experiment with HSkMC and in the experiment with HepG2 was “inactive” each time. Further, in the experiment on S. aureus RN4220, the growth inhibition call was “active”.

Take `COc1ccc(O)c(N)c1`: in the experiment with HSkMC, the cytotoxicity call is “inactive”. Moreover, the cytotoxicity call in the experiment with HepG2 was “active”. Moreover, the growth inhibition call in the experiment with S. aureus RN4220 was “inactive”.

Regarding `CC(C)[C@H]1C(=O)N[C@@H](CCCNC(=N)N)C(=O)NCC(=O)N[C@@H](CC(=O)O)C(=O)N[C@H](Cc2ccccc2)C(=O)N1C`, in the experiment on HSkMC, the cytotoxicity call was “inactive”. In addition, in the experiment with HepG2, the cytotoxicity call was “active”. In the experiment with S. aureus RN4220, the growth inhibition call was “inactive”.

`C1CC1c1noc(C2CNC2)n1`: the cytotoxicity call with HSkMC and with HepG2 was “inactive” in each case. The growth inhibition call in the experiment with S. aureus RN4220 was “inactive”.

Turning to `CN1CCN(C(=O)C[C@H]2CC[C@H]3[C@@H](COC[C@H](O)CN3C(=O)Nc3ccc4c(c3)OCO4)O2)CC1`, the cytotoxicity call with HSkMC and in the experiment with HepG2 was “inactive” throughout. Further, the growth inhibition call in the experiment with S. aureus RN4220 is “inactive”.

Turning to `C[C@@H]1CN([C@@H](C)CO)C(=O)c2cccc(NC(=O)CCCCCC(=O)Nc3ccccc3N)c2O[C@@H]1CN(C)CC1CCCCC1`, the cytotoxicity call with HSkMC was “inactive”. Further, the cytotoxicity call in the experiment with HepG2 was “active”. The growth inhibition call in the experiment with S. aureus RN4220 was “inactive”.

For the molecule `CCC1(c2ccccc2)C(=O)NCNC1=O`, the cytotoxicity call in the experiment on HSkMC and in the experiment with HepG2 was “inactive” throughout. Besides, the growth inhibition call in the experiment on S. aureus RN4220 is “inactive”.

In the case of `Cc1ccc(S(=O)(=O)Nc2ccc3c(c2)CC(=O)N([C@@H](C)CO)C[C@H](C)[C@H](CN(C)Cc2ccc(Oc4ccccc4)cc2)O3)cc1`, the cytotoxicity call in the experiment with HSkMC is “active”. Also, the cytotoxicity call with HepG2 is “inactive”. Moreover, in the experiment with S. aureus RN4220, the growth inhibition call was “inactive”.

For the molecule `O=C(O)CN(CCc1ccccc1)CC(=O)O`, the cytotoxicity call in the experiment on HSkMC (human skeletal muscle cells) and in the experiment on HepG2 was “inactive” in each case. The growth inhibition call with S. aureus RN4220 is “inactive”.

Consider `O=C(C[C@@H]1CC[C@H]2[C@@H](COC[C@@H](O)CN2S(=O)(=O)c2ccccc2)O1)N1CCOCC1`, for which the cytotoxicity call in the experiment with HSkMC and in the experiment with HepG2 was “inactive” in each case. Also, the growth inhibition call with S. aureus RN4220 is “inactive”.
